# Reference: paper PMC4336329 (PLoS ONE, 2015)
# The campaign covered roughly 310,000 compounds. About 14,000 (4.5%) showed an effect of 50% or more. The effect is printed as a negative number. Some of the results follow.
# Molecular target: human ether-à-go-go-related gene (hERG) potassium channel (human, UniProt Q12809)
# Test: primary screen, population patch clamp on CHO cells stably expressing hERG
# 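Also: peak tail current of the secondary pulse compared with the same well before compound.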
# Sequence of human ether-à-go-go-related gene (hERG) potassium channel (Q12809 whole entry, looked up): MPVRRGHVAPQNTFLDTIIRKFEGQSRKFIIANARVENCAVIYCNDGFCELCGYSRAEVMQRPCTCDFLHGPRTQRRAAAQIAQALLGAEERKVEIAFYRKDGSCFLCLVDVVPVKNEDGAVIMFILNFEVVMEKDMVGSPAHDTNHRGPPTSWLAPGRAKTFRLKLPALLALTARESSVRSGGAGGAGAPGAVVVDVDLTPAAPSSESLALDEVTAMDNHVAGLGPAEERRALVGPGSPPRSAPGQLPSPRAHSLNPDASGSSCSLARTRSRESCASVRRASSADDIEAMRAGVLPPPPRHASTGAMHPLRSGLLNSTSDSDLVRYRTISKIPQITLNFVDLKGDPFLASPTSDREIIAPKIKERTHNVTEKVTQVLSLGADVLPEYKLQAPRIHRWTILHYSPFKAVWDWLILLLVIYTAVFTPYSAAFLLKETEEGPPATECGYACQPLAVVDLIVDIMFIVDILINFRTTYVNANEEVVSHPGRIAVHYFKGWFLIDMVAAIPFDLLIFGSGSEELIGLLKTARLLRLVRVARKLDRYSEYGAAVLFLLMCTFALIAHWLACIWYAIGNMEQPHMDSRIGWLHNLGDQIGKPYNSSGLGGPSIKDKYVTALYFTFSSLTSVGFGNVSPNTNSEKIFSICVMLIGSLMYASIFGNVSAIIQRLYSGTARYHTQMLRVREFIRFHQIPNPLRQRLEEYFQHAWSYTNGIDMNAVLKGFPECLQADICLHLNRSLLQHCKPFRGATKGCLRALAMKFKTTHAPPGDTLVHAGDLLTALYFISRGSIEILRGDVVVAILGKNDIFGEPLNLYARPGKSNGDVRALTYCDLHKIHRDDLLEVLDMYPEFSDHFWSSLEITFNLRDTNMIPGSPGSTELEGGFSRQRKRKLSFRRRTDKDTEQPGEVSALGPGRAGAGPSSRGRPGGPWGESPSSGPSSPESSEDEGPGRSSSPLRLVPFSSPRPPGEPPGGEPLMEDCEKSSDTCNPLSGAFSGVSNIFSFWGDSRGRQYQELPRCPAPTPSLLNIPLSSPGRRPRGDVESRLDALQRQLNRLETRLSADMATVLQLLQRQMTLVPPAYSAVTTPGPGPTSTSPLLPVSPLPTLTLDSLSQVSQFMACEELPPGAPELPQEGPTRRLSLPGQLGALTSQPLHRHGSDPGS
row,SMILES,"hERG current change (%, negative = inhibition) at 10uM [%]"
1,Cc1ccc(S(=O)(=O)NCCCn2ccnc2)cc1C(=O)NC(C)C,-1.56
2,Cc1ccc(-n2nc(C)c3onc(C)c3c2=O)cc1,6.89
3,O=C(c1ccc(Cl)cc1)N1CCCC(C(=O)N2CCN(c3ccccc3)CC2)C1 (stereo not shown),-37.2
4,CCCOc1ccc(CC(=O)N/N=C\c2ccc(F)cc2)cc1,5.63
5,O=C(NCc1ccccc1)c1onc(CSc2ccccc2)c1C(=O)NCC1CC1,-33.4
6,COc1ccc(C(=O)Nc2cc(Cl)ccc2C(=O)O)cc1,24.7
7,CC(C)Cn1c(SCC(=O)Nc2cc(Cl)c(Cl)cc2Cl)nc(O)cc1=O,10.1
8,O=C(COC(=O)/C=C/c1ccco1)NCc1ccccc1Cl,17.7
9,O=C(NNS(=O)(=O)c1ccc(F)cc1)c1ccccc1O,12.7
10,O=c1c(Cl)c(N/N=C/c2ccc(Cl)cc2)cnn1-c1ccccc1,2.19
11,Cc1ccc(S(=O)(=O)N2CCOC23CCN(C(=O)c2cc(Cl)ccc2Cl)CC3)cc1,-47.6
12,CCCCCCn1nc(C(=O)N(CC(C)C)c2c(N)n(CCCC)c(=O)[nH]c2=O)c2ccccc2c1=O,-51.9
13,COCCn1nnnc1C(c1ccccn1)N1CCN(c2cc(C)ccc2C)CC1.Cl (stereo not shown),-29.1
14,COc1ccc(C)cc1NC(=O)c1ccc(OC(F)F)cc1,-24.3
15,COC(=O)c1cc(C(=O)Nc2ccc(Cl)cn2)cc([N+](=O)[O-])c1,-19
16,COc1ccccc1CN1CC(=O)N2CSC[C@H]2C1=O,10.3
17,CCOc1ccc(C(=O)NCC(=O)N2CCCC2)cc1,7.26
18,Cc1occc1-c1nnc(SCc2nnc(-c3ccc(Cl)cc3)o2)n1C,-43.1
19,COc1ccccc1NC(=O)CSCc1cc(=O)n2ccsc2n1,13.3
20,Cc1ccc(C(c2ccc(C)o2)c2cccc([N+](=O)[O-])c2O)o1,-6.66
21,CN1CCN(C(=O)c2cnn(-c3ccccc3)c2NC(=O)c2ccccc2Br)CC1,3.72
22,C/C(=N\NC(=O)c1ccc(NS(=O)(=O)c2cccs2)cc1)c1ccc(C(C)(C)C)cc1,7.41
23,O=C1CC(=C2c3ccccc3-c3ccccc32)C(=O)N1CCN1CCN(c2cccc(Cl)c2)CC1,3.74
24,COc1ccccc1CNC(=O)Cc1ccccc1,7.23
25,CC12COC3(P(=O)(c4ccccc4)c4ccccc4)CC1CCC23CP(=O)(c1ccccc1)c1ccccc1 (stereo not shown),-38.2
26,Cc1ccc(OC(C)C(=O)Nc2ccc3c(c2)n(C)c(=O)n3C)cc1C (stereo not shown),7.07
27,O=C(NCCCN1CCOCC1)c1ccc2c(c1)N(Cc1cccc(F)c1)C(=O)c1ccccc1S2,-23.2
28,CCc1cc2c(=O)c(-c3nc4ccccc4n3C)coc2c(CN2CCN(C)CC2)c1O,-4.19

row,SMILES,"hERG current change (%, negative = inhibition) at 10uM [%]"
1,COc1ccc(OC)c(/C=C2/Sc3ccccc3C2=O)c1,18.5
2,Cc1cc(=O)[nH]c(SCC(=O)N2CCN(C(c3ccccc3)c3ccccc3)CC2)n1,-14.4
3,CC(=O)c1ccc(Nc2nc(NCCO)nc(OC(C(F)(F)F)C(F)(F)F)n2)cc1,-39.3
4,Cc1cc(/C=C(\C#N)C(=O)Nc2ccccc2F)c(C)[nH]1,47.9
5,COc1ccc(/C=N/Nc2nc3ccccc3o2)cc1O,-19.2
6,NS(=O)(=O)c1cccnc1Nc1cccc(Cl)c1,11.8
7,CC(C)c1ccc(S(=O)(=O)NCc2ccc3c(c2)OCO3)cc1,-9.6
8,COC(=O)COc1ccc(S(=O)(=O)Nc2ccc(C(N)=O)cc2)cc1Cl,19
9,CCOc1cc(/C=N/NC(N)=O)cc(Br)c1OCC(=O)Nc1cccc2ccccc12,18.4
10,Br.COc1ccc2c(c1)[C@]13CCCC[C@@H]1[C@H](C2)N(C)CC3.O,-5.88
11,O=C(CSc1ncnc2c1oc1ccccc12)Nc1ccccc1F,11.8
12,COc1ccc(-n2c(SCC(=O)N3CCc4ccccc43)nnc2-c2c[nH]c3ccccc23)cc1,22.1
13,Cc1cc(C)n(C(=O)CNC(=O)CCc2ccccc2)n1,0.648
14,COc1ccc(CSCC(=O)Nc2ccccc2SC)cc1,-3.93
15,CC(NC(=O)COc1cc(=O)n(C)c2ccccc12)c1ccc2c(c1)OCCO2 (stereo not shown),-3.34
16,CCOc1ccc(CN2CCN(C3CCC3)CC2CCO)cc1 (stereo not shown),-19.2
17,CC(C)(C)C1CCC(=NNc2nc3ccccc3[nH]2)CC1 (stereo not shown),7.01
18,COc1ccc(C=C2C(=O)OC(C)(C)OC2=O)cc1OC,20.2
19,CCCC(=O)OCCNc1cc(SCCC(=O)OC)c2nonc2c1[N+](=O)[O-],-25.9
20,O=C(C1CCCCC1)N1CCC(n2nnc3ccccc32)CC1,-10.9
21,Cc1cccc(NC(=S)NCCc2ccccc2)c1C,-11.8
22,C/C(=N\Nc1nc(N2CCCCCC2)nc(N2CCCCCC2)n1)c1ccccc1,10.4
23,CC(/C=C/c1ccc(C)o1)=C\C(=O)O,11.6
24,CCOc1ccccc1NC(=O)CSc1nnc(Cn2c(=O)sc3ccccc32)n1C,-61.9
25,Cc1cc(=O)oc(C)c1C(=O)N1CCN(C(c2ccccc2)c2ccccc2)CC1,-28.2
26,c1csc(-c2nnc(COc3ccc4c(c3)OCO4)o2)c1,-2.91
27,C=CCNC(=O)c1ccccc1NS(=O)(=O)c1ccc(OC)c(C(=O)N2CCOCC2)c1,18.4
